The source of these data is patent US20230330254A1 (Regeneron Pharmaceuticals, Inc., priority 2022, published 2023).

For assay [1], the system named is HEK293/CRE-Luc cells. Nature of the assay: Flow cytometry cell binding, parental HEK293/CRE-Luc (Example 24). As to conditions: Table 39; parental cells lacking GLP1R; signal to noise. Also noted: species or system human. As for the experimental part: ATL and mAb binding to cells was assessed by flow cytometry. Briefly, 95,000-540,000 cells were suspended in staining buffer (PBS+2% FBS+0.2% sodium azide) in 96-well, V-bottom plates (Axygen, #P-96-450V-C-S) and incubated for 30 minutes at 4° C. with serial dilutions of the anti-GLP1R ATLs, non-binding control ATL, or unconjugated antibodies. […] Cells were then washed once and stained with a cell viability dye (Live/dead Fixable Green Dead Cell Stain Kit for 488 nm excitation, Molecular Probes, #L34970) at 1× in PBS for 20 minutes at 4° C. Cells were washed once in staining buffer, fixed for 20 minutes at 4° C. using a 50% solution of Cytofix (BD Biosciences, #554655) diluted in PBS, and washed again in staining buffer. Samples were filtered through 96-well filter plate (Pall Laboratory, #8027) and collected in 96-well, U-bottom plate (Falcon, #351177). Samples were run on the iQue Screener PLUS cytometer (IntelliCyt) and results were analyzed using Forecyte analysis software (IntelliCyt) to calculate the geometric mean fluorescence intensity (MFI) after gating for live cells. […] EC50 values were determined using a four-parameter logistic equation over an 8- or 12-point dose response curve (GraphPad Prism), and the signal to noise (S/N) was determined by taking the ratio of the highest MFI on the dose response curve to the MFI in the secondary alone wells. […]
For orientation: In flow cytometry, cells or beads pass a laser one at a time.

In assay [2] the target is T1, human GLP1R (Homo sapiens, UniProt P43220). The assay is described as follows: b-arrestin 2 recruitment assay, PathHunter CHO/b-arrestin 2/hGLP1R cells. It counts as cell-based. The conditions noted are these: Table 40, maximum signal relative to GLP-1. As for the experimental part:
The b-arrestin 2 recruitment assay was performed following manufacter's instructions (Eurofins DiscoverX, #93-0300E2CP0M), with minor modifications. […] Serial dilutions of free payload and LP were performed in 100% DMSO, followed by 1:100 dilution in assay media. Test articles were added to cells (1:5 dilution) with the last well in each serial dilution series serving as a blank control containing only assay media for antibodies and ATLs or assay media with 0.2% DMSO for payload and LP. After a 90-minute incubation at 37° C., PathHunter Detection Reagent (Eurofins DiscoverX, #93-0300E2CP0M) was added to the wells followed by a 1-hour incubation at room temperature. RLUs were measured on EnVision Plate Reader (Perkin Elmer).
(§1) EC50 values for luminescence assays were determined using a four-parameter logistic equation over a 12-point dose response curve (GraphPad Prism).
For orientation: Arrestin recruitment assays detect the binding of arrestin to an activated receptor.

The target of assay [3] is T1, human GLP1R. Nature of the assay: CRE-Luc cAMP reporter assay, HEK293/CRE-Luc/hGLP1R (Example 24). Type of assay: cell-based. Also noted: engineered to express full-length human GLP1R, cynomolgus GLP1R; expressed in transfected cells; host or cells: HEK293/CRE-Luc. The conditions noted are these: Table 40; maximum signal relative to GLP-1.
Source text: To test the activity of GLP1R agonist payloads, GLP1R agonist linker-payloads (LPs), and anti-GLP1R antibody-tethered ligands (ATLs) of the invention, a cell-based cAMP responsive luciferase reporter assay was developed. To generate the assay cell line, the firefly luciferase gene was placed under the control of a cAMP response element (CRE) located upstream of a minimal promoter and transfected into HEK293 cells and referred to herein as HEK293/CRE-Luc cells. HEK293/CRE-Luc cells were then engineered to express full-length human GLP1R (HEK293/CRE-Luc/hGLP1R), cynomolgus GLP1R (HEK293/CRE-Luc/mfGLP1R), or mouse GLP1R (HEK293/CRE-Luc/mGLP1R).
Serial dilutions of free payload and linker payloads (LP) were performed in 100% DMSO (ATCC, #4-X-5), followed by 1:100 dilution in assay media. Test articles were added to cells (1:5 dilution) with the last well in each serial dilution series serving as a blank control containing only assay media for antibodies and ATLs or assay media with 0.2% DMSO for payloads and LPs. After a 5-hour incubation at 37° C., luciferase activity was determined by addition of ONE-Glo reagent (Promega, #E6130) followed by measurement of relative light units (RLUs) on an EnVision Plate Reader (Perkin Elmer).
as §1

Assay [4] addresses T2, cynomolgus GLP1R (Macaca fascicularis, UniProt F8V479).
T2 construct: engineered to express full-length human GLP1R, cynomolgus GLP1R; expressed in transfected cells; host or cells: HEK293/CRE-Luc
Nature of the assay: Flow cytometry cell binding, HEK293/CRE-Luc/mfGLP1R (Example 18). As to conditions: Table 30. As for the experimental part:
(§2) GLP1R agonist linker payloads were conjugated to anti-GLP1R antibodies via N-terminal heavy or light chain Glutamine (Q) tags. […] The cell surface binding of the anti-GLP1R ATDCs to human GLP1R (HEK293/CRE-Luc/hGLP1R), cynomolgus GLP1R (HEK293/CRE-Luc/mfGLP1R), and control cells lacking expression of GLP1R (HEK293/CRE-Luc) was assessed via flow cytometry. […] The last well in each row of the plate served as a blank control containing only secondary antibody and was plotted as a continuation of the 3-fold serial dilution. […] Samples were filtered through Pall 96 well plate PP/PE mesh filter system and collected in Costar 96 well plate. Samples were run on the iQue flow cytometer (Intellicyte) and results were analyzed using Forecyte analysis software (Intellicyte) to calculate the mean fluorescent intensity (MFI) after gating for live cells. EC50 values were determined using a four-parameter logistic equation over a 10-point dose response curve (GraphPad Prism). The signal to noise (S/N) was determined by taking the ratio of the highest MFI on the dose response curve to the MFI in the secondary alone wells.

Assay [5] relates to HEK293/CRE-Luc cells. Nature of the assay: Flow cytometry cell binding, HEK293/CRE-Luc control cells (Example 18). Also noted: species or system human. The conditions noted are these: Table 30, control cells lacking GLP1R. The procedure: GLP1R agonist linker payloads were conjugated to anti-GLP1R antibodies via N-terminal heavy or light chain Glutamine (Q) tags. Several resulting anti-GLP1R-GLP1R agonist antibody tethered drug conjugates (ATDCs) and their unconjugated parental antibodies were tested for cell-based binding activity. The cell surface binding of the anti-GLP1R ATDCs to human GLP1R (HEK293/CRE-Luc/hGLP1R), cynomolgus GLP1R (HEK293/CRE-Luc/mfGLP1R), and control cells lacking expression of GLP1R (HEK293/CRE-Luc) was assessed via flow cytometry. For the assay, 61,000-230,000 cells were suspended in PBS, w/2% FBS and 0.2% sodium azide (staining buffer) in 96 well V-bottom plates and incubated for 30 minutes at 4° C. with three-fold serial dilutions of the anti-GLP1R ATDCs, non-binding control ATDCs, or unconjugated anti-GLP1R antibodies. The last well in each row of the plate served as a blank control containing only secondary antibody and was plotted as a continuation of the 3-fold serial dilution. […] Cells were then washed once and stained with a cell viability dye (Live/dead Fixable Green Dead Cell Stain Kit for 488 nm excitation, Molecular Probes cat #L34970) at 1× in PBS for 20 minutes at 4° C. Cells were washed once in staining buffer, fixed for 20 minutes at 4° C. using a 50% solution of Cytofix (BD Biosciences, Cat #554655) diluted in PBS, and washed again in staining buffer. Samples were filtered through Pall 96 well plate PP/PE mesh filter system and collected in Costar 96 well plate. Samples were run on the iQue flow cytometer (Intellicyte) and results were analyzed using Forecyte analysis software (Intellicyte) to calculate the mean fluorescent intensity (MFI) after gating for live cells. EC50 values were determined using a four-parameter logistic equation over a 10-point dose response curve (GraphPad Prism). The signal to noise (S/N) was determined by taking the ratio of the highest MFI on the dose response curve to the MFI in the secondary alone wells.

Assay [6] deals with T1, human GLP1R. The assay is described as follows: Flow cytometry cell binding, HEK293/CRE-Luc/hGLP1R (Example 18). As to conditions: Table 30, experiments A, C, D. The arrangement: engineered to express full-length human GLP1R, cynomolgus GLP1R; expressed in transfected cells; host or cells: HEK293/CRE-Luc. As for the experimental part:
as §2

T1 sequence (P43220 24-463): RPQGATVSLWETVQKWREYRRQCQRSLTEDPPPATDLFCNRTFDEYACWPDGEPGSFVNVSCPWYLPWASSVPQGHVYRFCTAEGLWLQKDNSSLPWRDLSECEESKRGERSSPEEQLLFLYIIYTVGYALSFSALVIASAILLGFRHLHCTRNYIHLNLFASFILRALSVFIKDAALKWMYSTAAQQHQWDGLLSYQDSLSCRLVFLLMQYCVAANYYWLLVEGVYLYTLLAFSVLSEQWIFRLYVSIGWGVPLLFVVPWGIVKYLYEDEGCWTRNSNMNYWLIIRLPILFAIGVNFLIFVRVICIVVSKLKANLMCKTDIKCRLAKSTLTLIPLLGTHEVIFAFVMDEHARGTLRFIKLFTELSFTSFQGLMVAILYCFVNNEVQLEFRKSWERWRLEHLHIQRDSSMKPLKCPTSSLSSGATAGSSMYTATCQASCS
T2 sequence (F8V479 24-463): as the sequence (P43220 24-463) above, with S112N, F120S, S202G, L205V, L237F, W241R, I249V counted along it

B1: REGN15869 ATL (conjugate)
heavy: [about 100 residues left out here]GLIAPRPMGFDYWGQGTLVTVSSASTKGPSVFPLAPCSRSTSESTAALGCLVKDYFPEPVTVSWNSGALTSGVHTFPAVLQSSGLYSLSSVVTVPSSSLGTKTYTCNVDHKPSNTKVDKRV[human IgG4 Fc with S228P (EU numbers) left out here]
light: LLQGSGDIQMTQSPSSVSASVGDRVTITCRASQGINSWLAWYQQKPGKAPKLLIYAASSLESGVPSRFSGSGSGTDFTLTISSLQPEDFATYYCHQADSFPYTFGQGTKLEIKRTVAAPSVFIFPPSDEQLKSGTASVVCLLNNFYPREAKVQWKVDNALQSGNSQESVTEQDSKDSTYSLSSTLTLSKADYEKHKVYACEVTHQGLSSPVTKSFNRGEC
Regarding B1, in assay [1], the “HEK293/CRE-Luc Flow S/N” value came out at 19.1. The “CHO/b-arrestin 2/hGLP1R Emax (% GLP-1)” value in assay [2] is given as 110.9 % GLP-1. In assay [3], the “HEK293/CRE-Luc/hGLP1R Emax (% GLP-1)” value amounted to 96.2 % GLP-1.

B2: REGN7988 unconjugated Ab (antibody)
heavy: QVQLVESGGGVVQPGRSLRLSCAASGFTFSGYGIHWVRQAPGKGLVWVAVIWYDGSFKYYADSVKGRFTISRDNSKNTLYLQMNSLRAEDTAVYYCARGDSSSSGRYYYYGMDVWGQGTTVTVSSASTKGPSVFPLAPCSRSTSESTAALGCLVKDYFPEPVTVSWNSGALTSGVHTFPAVLQSSGLYSLSSVVTVPSSSLGTKTYTCNVDHKPSNTKVDKRV[human IgG4 Fc with S228P (EU numbers) left out here]
light: LLQGSGDIQMTQSPSSLSASVGDRVTITCRASQGIRNDLGWYQQKPGTAPKRLIFAASSLQSGVPSRFSGSGSGTEFTLTISSLQPEDFATYYCLQHNNYPPTFGGGTKVEIKRTVAAPSVFIFPPSDEQLKSGTASVVCLLNNFYPREAKVQWKVDNALQSGNSQESVTEQDSKDSTYSLSSTLTLSKADYEKHKVYACEVTHQGLSSPVTKSFNRGEC
Regarding B2, the EC50 (in general, the midpoint of the concentration-response curve) in assay [4] (flow cytometry cell binding, no unit printed in table (text reads values as M)) is 0.662 nM; in assay [5] (no unit printed in table (text reads values as M)) it was more than 100 nM; in assay [6] (flow cytometry cell binding, no unit printed in table (text b1840 reads values as M)) it was 1.89 nM. The “HEK293/CRE-Luc/mfGLP1R Flow S/N” value in assay [4] (signal to noise) is on record as 467.2. Besides, in assay [5] (signal to noise), the “HEK293/CRE-Luc Flow S/N” value is 9.2. Besides, the “HEK293/CRE-Luc/hGLP1R Flow S/N” value in assay [6] (signal to noise) was 397.7.
